# From PubChem BioAssay (NCATS)
# Inconclusive results, whose numbers are uncertain, are shown with a selection of clear calls. For part of these data: Potencies of inconclusive entries are left out as doubtful fits. Activity calls are given as the source filed them. Calls follow the shape of the dose curve; as a rule, active = well fitted curve in the direction sought with a large enough effect; inconclusive = small, poorly fitted or top-dose-only effect, or another doubt; inactive = no such curve, though single readings can be large; an effect the other way counts as inactive or inconclusive.
# Tests used:
# [1] = target: Phospholipid hydroperoxide glutathione peroxidase GPX4 (Homo sapiens) (UniProt P36969); experiment: Primary qHTS Assay for Inhibitors of Recombinant Selenoprotein Glutathione Peroxidase 4 (GPX4) (AID 1845192); also: nearly all actives have a fitted effect of over 65% in size; also: potency is read from the fitted curve at half-maximal effect
# UniProt P36969, sequence (P36969 whole entry, looked up): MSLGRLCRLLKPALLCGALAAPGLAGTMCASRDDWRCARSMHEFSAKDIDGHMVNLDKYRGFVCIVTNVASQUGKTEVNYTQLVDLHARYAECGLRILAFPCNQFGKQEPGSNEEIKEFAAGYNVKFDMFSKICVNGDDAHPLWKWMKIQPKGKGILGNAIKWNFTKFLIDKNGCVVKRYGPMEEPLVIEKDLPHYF
# Method in brief: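 Steps: GPX4 plus compound, 30 min RT; add GR/GSH/NADPH master mix; start with cumene hydroperoxide; read 340/450 nm fluorescence at 0 and 15 min. Finals were 200 nM GPX4, 1 mM GSH, 0.5 mM CHP, 0.5 mM NADPH, 100 nM GR.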
# [2] = Drug repurposing screens with cells derived from glioblastoma tumor samples (AID 1345199); settings: GBM patient neurospheres viability, ATP luminescence, 48 h; Potency: tumour line A unless noted; series mostly up to 46 µM; also: potency is read from the fitted curve at half-maximal effect; nearly all actives have a fitted effect of over 40% in size
# Method in brief: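 Primary testing used CD133+ neurospheres from four GBM patients, seven concentrations, 48 h exposure and ATP-based viability; confirmation added three slower-growing patient lines.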
# [3] = qHTS of pediatric cancer cell lines to identify multiple opportunities for drug repurposing: Primary screen for LAN-5 cells (AID 1347100); also: potency is read from the fitted curve at half-maximal effect
# Method in brief: (§1)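 Viability after 48 h compound treatment at 37C, 500-1,000 cells/well, read as ATP luminescence with CellTiter-Glo. Primary screens used 11-point (MIPE, 0.78 nM-46 µM) or 8-point (NPC, 0.59 nM-46 µM) final concentrations; follow-up screens used 11-point dilutions.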
# [4] = qHTS of pediatric cancer cell lines to identify multiple opportunities for drug repurposing: Primary screen for RD cells (AID 1347104); also: nearly all actives have a fitted effect of over 55% in size; also: potency is read from the fitted curve at half-maximal effect
# Method in brief: (§2)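 Following a 5-hour attachment period, cells at 500-1,000/well received compounds and were cultured for 48 hours. CellTiter-Glo was added and luminescence read to estimate viable, metabolically active cells.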
# [5] = qHTS to identify inhibitors of the type 1 interferon - major histocompatibility complex class I in skeletal muscle: primary screen against the NCATS Mechanism Interrogation Plate v5.0 (MIPE) Libary (AID 1347411); settings: iHSKM cells + IFN-b, HiBiT-tagged MHC-I luminescence, 24 h; series mostly up to 45.8 µM; also: potency is read from the fitted curve at half-maximal effect; nearly all actives have a fitted effect of over 65% in size
# Method in brief: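 IFN-beta-driven (4 ng/ml) HLA-B-HiBit expression in CRISPR-tagged C25cl48 myoblasts; compounds 11-pt, 1:3, max 46 uM, 24 hr exposure; lytic NanoLuc complementation luminescence.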
# [6] = target: Glutathione peroxidase 1 (Homo sapiens) (UniProt P07203); experiment: Primary qHTS Assay for Inhibitors of Recombinant Selenoprotein Glutathione Peroxidase 1 (GPX1) (AID 1845191); settings: activity, negative = inhibition: at 48.8 µM (top of the series); also: nearly all actives have a fitted effect of over 65% in size; also: potency is read from the fitted curve at half-maximal effect
# UniProt P07203, sequence (P07203 whole entry, looked up): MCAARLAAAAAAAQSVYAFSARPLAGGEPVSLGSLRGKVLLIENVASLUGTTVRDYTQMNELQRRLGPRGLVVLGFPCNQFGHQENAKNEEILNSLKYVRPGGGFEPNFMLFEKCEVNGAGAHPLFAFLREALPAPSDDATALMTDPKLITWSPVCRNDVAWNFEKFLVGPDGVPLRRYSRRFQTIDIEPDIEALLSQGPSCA
# Method in brief: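 GR-coupled readout: NADPH consumption tracked by fluorescence, ex 340/em 450 nm, at t=0 and after 15 min at RT. Final mix 10 nM GPX1, 1 mM GSH, 0.5 mM CHP, 0.5 mM NADPH, 100 nM GR, 0.01% BSA, following 30 min enzyme–compound preincubation.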
# [7] = target: Luciferin 4-monooxygenase (Photinus pyralis) (UniProt P08659); experiment: Primary firefly luciferase (FLuc) qHTS assay for identification of artifact compounds. (AID 1845220); also: potency is read from the fitted curve at half-maximal effect; nearly all actives have a fitted effect of over 60% in size
# Method in brief: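 D-luciferin and ATP (10 uM each, final) in Tris acetate buffer pH 7.6 were incubated with compounds for 15 min at room temperature. The reaction was started with 10 nM Photinus pyralis luciferase and luminescence read after 5 min. Percent inhibition was fitted to a 4-parameter Hill equation.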
# [8] = qHTS of pediatric cancer cell lines to identify multiple opportunities for drug repurposing: Primary screen for DAOY cells (AID 1347090); settings: DAOY medulloblastoma viability, CellTiter-Glo luminescence, 48 h; activity change, negative = cytotoxic: at 46 µM (top of the series); also: nearly all actives have a fitted effect of over 55% in size; also: potency is read from the fitted curve at half-maximal effect
# Method in brief: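 Viability measured as metabolically active cells via CellTiter-Glo luminescence following 48 hours of compound exposure, 11-point dilutions in confirmatory testing. 500-1,000 cells/well plated 5 hours before dosing; controls were DMSO and 2.3 µM bortezomib.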
# [9] = qHTS of pediatric cancer cell lines to identify multiple opportunities for drug repurposing: Primary screen for Rh41 cells (AID 1347108); also: nearly all actives have a fitted effect of over 70% in size; also: potency is read from the fitted curve at half-maximal effect;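 as to activity change, negative = cytotoxic: luminescence drop marks cytotoxic hits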
# Method in brief: as §2
# [10] = target: Calcium and integrin-binding protein 1 (Homo sapiens) (UniProt Q99828); experiment: Primary qHTS for Identification of Calcium Integrin Binding Protein 1 (CIB1) Competitor (AID 1508620); also: potency is read from the fitted curve at half-maximal effect
# UniProt Q99828, sequence (Q99828 whole entry, looked up): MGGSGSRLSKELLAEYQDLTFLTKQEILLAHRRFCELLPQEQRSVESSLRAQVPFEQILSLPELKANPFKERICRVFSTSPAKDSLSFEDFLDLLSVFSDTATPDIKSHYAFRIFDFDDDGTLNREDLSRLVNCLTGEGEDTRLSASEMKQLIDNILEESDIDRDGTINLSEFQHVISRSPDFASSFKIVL
# Method in brief: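 Fluorescence polarization competition: GST-tagged CIB1 (1 uM final) preincubated with compound 15 min at room temperature, then FITC-labelled alphaIIb peptide (100 nM final) added. After 15 min at room temperature, polarization read at Ex 480/Em 540.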
# [11] = qHTS assay to identify inhibitors of the type 1 interferon - major histocompatibility complex class I in skeletal muscle: Counter screen cell viability and HiBit confirmation (AID 1347412); settings: iHSKM muscle cells + IFN-b, HiBiT or CellTiter-Glo, 24 h; also: potency is read from the fitted curve at half-maximal effect; nearly all actives have a fitted effect of over 60% in size
# Method in brief: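 Duplicate plates, pinned identically: one read for HiBiT-tagged endogenous HLA-B luminescence, the other for ATP-content viability via CellTiter Glo. Cells were genome-engineered human myoblasts given 4 ng/ml IFN-b; compounds 12-pt, 1:3 from 46 uM final; 24 hr exposure.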
# [12] = qHTS of pediatric cancer cell lines to identify multiple opportunities for drug repurposing: Primary screen for Rh30 cells (AID 1347107); also: nearly all actives have a fitted effect of over 75% in size; also: potency is read from the fitted curve at half-maximal effect
# Method in brief: as §1
# [13] = qHTS of pediatric cancer cell lines to identify multiple opportunities for drug repurposing: Primary screen for SK-N-SH cells (AID 1347098); settings: SK-N-SH viability, CellTiter-Glo luminescence, 48 h; activity change, negative = cytotoxic: at 57 µM (top of the series);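 also: DMSO served as neutral control and bortezomib at 2.3 µM as positive control; nearly all actives have a fitted effect of over 65% in size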
# Method in brief: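 Cells (500-1,000/well) rested 5 h, then received compounds for 48 h; metabolically active cells were measured by CellTiter-Glo luminescence. Final concentrations spanned up to 46 µM (MIPE, 11-point) or 0.59 nM-46 µM (NPC, 8-point) in primary screens, 11-point in follow-ups.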
# [14] = NS1 protein of Zika virus - qHTS assay to identify small molecule inhibitors in human HEK 293 cells (AID 1347053); also: potency is read from the fitted curve at half-maximal effect; nearly all actives have a fitted effect of over 55% in size
# Method in brief: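 Read-out is a two-antibody TR-FRET for ZIKV NS1, normalized between uninfected cells and infected cells. Compound added 1 h before MR766 infection at MOI 0.5; human HEK 293 cells incubated 24 h, 37 C.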
# [15] = qHTS of pediatric cancer cell lines to identify multiple opportunities for drug repurposing: Primary screen for TC32 cells (AID 1347089); also: potency is read from the fitted curve at half-maximal effect; nearly all actives have a fitted effect of over 60% in size
# Method in brief: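 In the primary qHTS, MIPE compounds were tested at 11 concentrations (0.78 nM to 46 µM) and NPC compounds at 8 (0.59 nM to 46 µM) on TC32 cells for 48 h. CellTiter-Glo luminescence gave viability.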
# [16] = qHTS of pediatric cancer cell lines to identify multiple opportunities for drug repurposing: Primary screen for U-2 OS cells (AID 1347096); also: potency is read from the fitted curve at half-maximal effect; nearly all actives have a fitted effect of over 50% in size
# Method in brief: as §1
# [17] = Quantitative High-Throughput drug screen in 47 multiple myeloma cell lines against the NCATS MIPE library collection: JIM1_ECACC cell viability assay (AID 1918964; also: potency is read from the fitted curve at half-maximal effect)
# Method in brief: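 We plated 500 myeloma cells per well, pinned in MIPE 4.0 compounds, and incubated for 48 hours at 37C. ATP was then quantified with CellTiter-Glo, with DMSO and media-only wells defining 100% and 0%.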
# [18] = test system: MKL-2; experiment: qHTS assay to identify novel small-molecules to repurpose for Merkel cell carcinoma treatment (AID 1296009); settings: MCC and control cell lines, CellTiter-Glo viability, 72 h; series mostly up to 46 µM; also: nearly all actives have a fitted effect of over 60% in size; also: potency is read from the fitted curve at half-maximal effect
# Method in brief: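 CellTiter-Glo luminescence after 72 hr compound exposure at 37 degree celsius gave cell viability. Libraries NPC and MIPE were run as 8- and 11-point dose responses; RLUs normalized to DMSO (negative) and no-cell (cytotoxicity) controls.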
# [19] = test system: Zika virus NS2B-NS3 protease; experiment: Primary screen GU AMC qHTS for Zika virus inhibitors (AID 1347154); also: potency is read from the fitted curve at half-maximal effect; nearly all actives have a fitted effect of over 70% in size
# Method in brief: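 Unlinked Zika NS2B hydrophilic domain–NS3 protease complex at 25 nM in 10 mM Tris-HCl pH 8.0, 0.01% Tween 20, with an AMC peptide substrate. Fluorescence change (340/450 nm) over 15 min at room temperature, normalized to controls, fitted to 4-parameter Hill.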
# Tags tell the direction and shape of the fitted curve.
compound,measurement,setting,value
C=C1C(=O)OC2C1CCC(=C)C1CC(OC(C)=O)C(=C)C12 (stereo not drawn),Potency,[1],inactive
CC(N=C(NC#N)Nc1ccncc1)C(C)(C)C (stereo not drawn),Potency,[2],"inconclusive [inhibitor, full curve]"
CCCCN(CCCC)CC(O)c1cc(Cl)cc2c1-c1ccc(Cl)cc1/C2=C/c1ccc(Cl)cc1 (stereo not drawn),Potency,[3],"inconclusive [cytotoxic, single point]"
same,Potency,[4],"inconclusive [cytotoxic, single point]"
same,Potency,[1],"inconclusive [inhibitor, partial curve]"
NC(=O)[C@H]1CCS[C@@H]2C[C@]3(CCCN3C(=O)Cc3ccc(NC(=O)COc4ccc(Cl)cc4Cl)cc3)C(=O)N12,Potency,[5],"inconclusive [inhibitor, single point]"
NCc1ccc(OCCCc2sc(-c3ccc4c(c3)/C(=N/Nc3nc5ccccc5s3)CCC4)nc2C(=O)O)cc1,Potency,[5],"inconclusive [inhibitor, partial curve]"
same,Potency,[6],"inconclusive [inhibitor, single point]"
same,Potency,[1],"inconclusive [inhibitor, full curve, poor fit]"
same,Potency,[7],"inconclusive [inhibitor, partial curve]"
CCOCc1cc(OC)c(-c2ccc(C[C@H](NC(=O)c3c(F)cccc3F)C(=O)O)cc2)c(OC)c1,Potency,[6],inactive
Fc1ccc(C(c2ccc(F)cc2)N2CCNCC2)cc1,Potency,[8],inactive
same,Potency,[9],inactive
Cc1ccc(C(=O)Nc2noc3ccccc23)cc1,Potency,[1],inactive
C=C1CC[C@@H](O)[C@]2(C)C[C@H]3OC(=O)C(=C)[C@H]3CC12 (stereo partly drawn),Potency,[6],inactive
CNC(=O)c1cc(Oc2ccc3nc(N[C@@H]4CCCC[C@H]4O)sc3c2)ccn1,Potency,[7],active: 12 µM
CC(C)=CCc1ccc(Oc2c(O)cc(C)cc2CO)c(C(=O)O)c1O,Potency,[10],"inconclusive [inhibitor, partial curve, poor fit]"
C=C1C(=O)O[C@@H]2/C=C(\C)CC/C=C(/C=O)[C@H](OC)[C@@H](OC(=O)C(C)C)[C@@H]12,Potency,[6],inactive
COc1cc(OC)c(/C=C/S(=O)(=O)Cc2ccc(OC)c(NCC(=O)O)c2)c(OC)c1,Potency,[5],"inconclusive [inhibitor, full curve]"
same,Potency,[11]; HiBiT,"inconclusive [inhibitor, full curve]"
same,Potency,[11]; Viability,"inconclusive [cytotoxic, full curve]"
CCCC(=O)O[C@]1(C(=O)CC)CC[C@H]2[C@@H]3CCC4=CC(=O)CC[C@]4(C)[C@H]3[C@@H](O)C[C@@]21C,Potency,[12],inactive
same,Potency,[9],"inconclusive [cytotoxic, partial curve, poor fit]"
CCCN(CCc1cccs1)[C@H]1CCc2c(O)cccc2C1,Potency,[13],inactive
same,Potency,[9],inactive
COCCOC(=O)C1=C(C)NC(C)=C(C(=O)OC(C)C)C1c1cccc([N+](=O)[O-])c1 (stereo not drawn),Potency,[8],"inconclusive [cytotoxic, single point]"
same,Potency,[3],"inconclusive [cytotoxic, single point]"
same,Potency,[4],"inconclusive [cytotoxic, single point]"
same,Potency,[12],"inconclusive [cytotoxic, partial curve, poor fit]"
same,Potency,[9],"inconclusive [cytotoxic, single point]"
same,Potency,[2],active: 14.1 µM
NS(=O)(=O)c1ccc(N2N=C(c3ccccc3)CC2c2ccccc2)cc1 (stereo not drawn),Potency,[6],"inconclusive [inhibitor, partial curve, poor fit]"
same,Potency,[1],active: 16.1 µM
same,Potency,[7],"inconclusive [inhibitor, single point]"
Cc1cnc(NC(=O)Nc2cc(Br)c(C)cc2OC[C@@H]2CNCCO2)cn1,Potency,[14],active: 6.62 µM
same,Potency,[15],"inconclusive [cytotoxic, full curve]"
same,Potency,[8],"inconclusive [cytotoxic, full curve]"
same,Potency,[16],"inconclusive [cytotoxic, full curve]"
same,Potency,[3],active: 1.87 µM
same,Potency,[5],"inconclusive [inhibitor, partial curve, poor fit]"
same,Potency,[17],active: 1.05 µM
C[C@@H](CN(C)C)CN1c2ccccc2Sc2ccccc21,Potency,[3],inactive
same,Potency,[4],"inconclusive [cytotoxic, single point]"
same,Potency,[18],active: 23.7 µM
C/C=C/C(=O)N(CC)c1ccccc1C,Potency,[18],inactive
CCOC(=O)Cn1cccc1-c1nc(-c2ccc(OC)cc2)c(-c2ccc(OC)cc2)s1,Potency,[4],inactive
same,Potency,[19],"inconclusive [inhibitor, partial curve]"
same,Potency,[18],"inconclusive [inhibitor, partial curve]"
